Data reported in the supplement of paper PMC3334620.
In all, about 33,000 sequences were measured (“E-score (-0.5 to 0.5)”: median about -0.016, highest 2% from about 0.32 on). The list shows a part of the results.

biological target: T1, Stp1 (UniProt B3LFK1); test: PBM E-score (8-mer binding enrichment) (E-score (-0.5 to 0.5)); higher = stronger / more preferred TF binding; most listed sequences are background and not binding sites; conditions: protein concentration: 200 nM; construct: GST-full length
T1 sequence: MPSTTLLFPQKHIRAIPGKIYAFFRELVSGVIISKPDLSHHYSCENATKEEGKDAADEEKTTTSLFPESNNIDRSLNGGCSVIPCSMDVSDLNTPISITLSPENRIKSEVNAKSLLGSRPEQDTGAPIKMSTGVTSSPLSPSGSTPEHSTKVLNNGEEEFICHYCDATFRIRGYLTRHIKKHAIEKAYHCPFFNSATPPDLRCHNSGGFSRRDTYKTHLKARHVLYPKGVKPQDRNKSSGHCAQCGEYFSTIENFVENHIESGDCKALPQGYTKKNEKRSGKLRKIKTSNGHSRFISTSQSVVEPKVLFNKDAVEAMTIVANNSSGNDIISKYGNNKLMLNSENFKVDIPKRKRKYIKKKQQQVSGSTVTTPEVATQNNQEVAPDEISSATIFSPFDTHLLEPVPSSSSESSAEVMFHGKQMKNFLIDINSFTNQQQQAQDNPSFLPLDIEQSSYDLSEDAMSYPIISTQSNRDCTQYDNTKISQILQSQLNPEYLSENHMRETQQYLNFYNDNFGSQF
Description: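 Universal 'all 10-mer' protein binding microarrays (Agilent AMADID 015681) probed with GST-tagged S. cerevisiae TFs (full-length or DBD) made by in vitro transcription/translation (PURExpress), about 100-200 nM. Bound TF was detected with fluorescent anti-GST. Each ungapped 8-mer (which stands for itself and its reverse complement) is scored by the PBM enrichment score (E-score), a modified Wilcoxon-Mann-Whitney statistic from -0.5 to +0.5, computed with the Universal PBM Analysis Suite. Scale: above 0.35 generally sequence-specific binding.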

Sequence | PBM E-score
AAATAAAG | 0.011
ATCACGAA | 0.0498
TCACTAAA | -0.0488
CGACTAAA | -0.036
AGCACAGG | -0.129
TCCGCGAA | 0.213
AGAACTGC | 0.0177
AGATCACG | -0.00795
GACAGTTA | -0.117
CGACGCCA | 0.106
AGTGTCCA | 0.0853
AATTGTAG | 0.038
CCGCGAAG | 0.163
AAAAGCGG | 0.189
GAGAGTCC | -0.126
CTTTATGA | -0.15
AAGACAGG | 0.00525
ACCTCGAT | -0.0777
AGAGGGCT | -0.358
ATGCCATA | 0.117
AACGTTCT | 0.0162
ACATCAGG | -0.0997
CCGTCACC | -0.0694
CGGATGTC | -0.0665
ACGGAAGT | 0.0615

Sequence | PBM E-score
AGAATAGA | -0.0123
ACCAGCAT | -0.271
AGGATACT | -0.198
ACGCATTA | -0.0955
ATTTAGGG | 0.0511
TAGATCGA | -0.163
GGGAGAAC | -0.151
GATTGCTA | 0.0147
AGCCCTTG | -0.131
AACCCTGT | -0.0655
GTGTGAAC | -0.0424
TGGGCACA | 0.135
ATGGGCAA | -0.126
AAGGTAAC | 0.221
ACTTGCAA | 0.181
TCAGTTCA | -0.078
ATTGTTTG | 0.202
GCTGAATA | -0.0632
AATGGTCA | -0.0635
TCGACAGA | -0.0398
CGCGACCC | -0.1
CAATTCTG | 0.0916
TGCTAAAA | 0.0719
GATCGGCA | 0.135
AAAAAAGC | 0.114

Sequence | PBM E-score
CCGATGGC | -0.0258
CACTATCC | -0.135
ACTACTCG | 0.0185
GATAGCGC | 0.0676
AGATGGCC | -0.132
CCGAAGGC | -0.112
GCATTAAA | 0.244
AACGCAAA | 0.174
ATAACGCG | 0.0829
CGGCGTAC | 0.36
ATCTTAGC | -0.0777
AGAAGTGA | -0.0301
ACAAAAAT | 0.178
AACACCAT | 0.12
CCACTGCC | 0.0034
CTCAAGAA | -0.0307
CATGGAAC | -0.116
CTTCTAGC | -0.0527
GGATGAAA | 0.0759
AGCAGTTA | -0.083
CTTCTCTA | -0.0825
AATACCTC | 0.0466
ACTAAGGG | -0.147
AGAGTACC | -0.107
AAGCCGCC | 0.177

Sequence | PBM E-score
GGTCATTA | -0.256
AACATATT | 0.0606
ACCCGCAG | 0.0741
AAACCTAC | -0.0505
CACCGTGA | -0.114
ACGCCGCT | 0.423
ATGATCAC | 0.0539
ACGCAAGC | -0.126
TCTTCTAA | 0.185
CATAGTCC | -0.0737
GATCTGCA | -0.197
TAATTTAA | 0.174
AGAACCAT | 0.0663
CAATTCTA | -0.00449
ACCTGCAA | -0.152
CGCCAAGA | -0.132
ATACATGA | -0.0755
GCCGCTAA | 0.313
ATTCATGG | 0.0335
AGCTGTAC | -0.0972
CATTGAAA | 0.149
CCCATGGA | -0.183
CCGCCTCC | -0.0913
GCACCACA | 0.151
TAACGAGA | -0.12

Sequence | PBM E-score
AGCACCAG | -0.204
AAAACCAT | 0.0744
AGATGTGC | -0.0497
CGGTGGCA | -0.0169
TTATTGAA | 0.0619
AATAGGTA | -0.0154
AAGTTCTA | -0.0481
CGACCTTA | 0.0223
ACACTGGG | -0.235
ATATCTTA | 0.174
TCATCTCA | -0.0321
CCGATGTC | -0.131
CAGCTAAC | -0.171
ACGCCAGG | -0.14
AACTTACT | -0.182
GGAATGCC | 0.242
GAGTCACC | -0.144
CGCTTGTA | 0.0756
AAAGGGAG | -0.205
CTATTGTA | 0.228
GCCGGCAA | 0.106
ACCTAGGA | -0.124
AGAAGACT | -0.15
ACGTCCAG | -0.253
ATAATTTA | 0.199

Sequence | PBM E-score
GCTCATTA | 0.0806
GTTGGAAA | 0.167
ATTACGGC | 0.341
TACGTTAA | -0.048
AGAATCTC | -0.0977
CGTACCCA | -0.0511
AGTGCGAA | -0.103
CTAGCCAA | 0.0204
ATCCCTCA | -0.107
AATACTCT | 0.146
CATTTGCG | 0.203
AGGCATAT | 0.0894
AAACAGAG | -0.0163
ATACCTTG | 0.0388
ATAGGAAC | 0.00431
GGTATACA | -0.0289
CCGGCCCG | -0.15
CGACCGTA | -0.012
CCACCCGA | -0.144
ACGATTGA | 0.0149
CAGAGTTA | 0.0347
GAGCCCTC | -0.0998
CTTCAAGC | 0.0107
GTGCTATA | 0.0304
GGGTTCCA | -0.286

Sequence | PBM E-score
ACTGCAGG | -0.194
ATGATAAA | 0.0859
CATCTAGG | -0.262
CTTCGTAA | 0.0463
CCTAATAA | 0.0583
CCCCAAAA | -0.0767
ATATACGG | 0.282
GGATACGA | -0.0152
ATAAGCCC | -0.243
CAGGCCTG | -0.158
CGCAGGGA | -0.185
ACTCGATG | -0.0609
ACTGGGTG | -0.267
AAAACCCA | 0.124
GCTCGCAA | 0.0384
ACTCTTTC | -0.15
CCTTCTGA | -0.0316
ATCTAGAA | 0.07
CCTCAGGA | -0.191
ATATCAAA | 0.167
TAGATCTA | 0.0708
AGCCGTTC | 0.424
